Screen size: about 270,000 compounds; about 620 (0.23%) were called active. Inconclusive results, whose numbers are uncertain, are shown with a selection of clear calls. The call rests on the fitted dose curve; in most records, active means well fitted inhibition curve with a large enough effect in the polarisation, with a control signal flat (not every such curve was filed as active); inconclusive means small, poorly fitted or top-dose-only effect, or effect the other way, or a change in a side signal; inactive means no such curve, though single readings can be large or run the other way; the % refers to the polarisation. A potency beside an inconclusive call is a rough fit, not a confirmed value. A note “side channel” means that the fit belongs to a control or component signal, not to the main read-out.
biological target: Menin (Homo sapiens) (UniProt O00255); assay: qHTS Assay for Inhibitors Targeting the Menin-MLL Interaction in MLL Related Leukemias: Competition With Texas Red Labeled MLL-derived Mutant Peptide; conditions: fluorescence polarization; FP activity change, negative = inhibition: at 61.6 µM (top of the series); on FP activity change, negative = inhibition: % of control where 0% means no effect
Potency means the concentration at half of the fitted maximal effect; tags describe the fitted curve by direction and shape or compound fluorescence and quenching.

Sequence of UniProt O00255 (O00255 whole entry, looked up): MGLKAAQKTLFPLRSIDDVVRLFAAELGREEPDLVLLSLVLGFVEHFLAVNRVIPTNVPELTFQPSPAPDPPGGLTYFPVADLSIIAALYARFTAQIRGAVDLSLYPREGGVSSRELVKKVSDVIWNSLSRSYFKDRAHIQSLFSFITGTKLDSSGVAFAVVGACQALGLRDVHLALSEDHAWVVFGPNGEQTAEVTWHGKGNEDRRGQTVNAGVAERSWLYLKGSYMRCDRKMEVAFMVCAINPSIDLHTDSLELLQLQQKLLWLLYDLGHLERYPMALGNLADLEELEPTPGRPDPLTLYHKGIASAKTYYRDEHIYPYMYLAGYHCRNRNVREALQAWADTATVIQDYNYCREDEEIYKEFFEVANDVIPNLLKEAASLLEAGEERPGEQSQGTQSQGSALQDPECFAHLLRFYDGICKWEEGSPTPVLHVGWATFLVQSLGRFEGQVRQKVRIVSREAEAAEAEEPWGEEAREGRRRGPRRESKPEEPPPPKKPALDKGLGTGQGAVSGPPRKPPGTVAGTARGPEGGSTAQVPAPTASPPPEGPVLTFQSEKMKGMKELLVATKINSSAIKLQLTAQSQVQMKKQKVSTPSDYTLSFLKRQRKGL

Row | SMILES | Potency | FP activity change, negative = inhibition
1 | COc1cc(/C=C2/SC(=Nc3ccc(O)cc3)NC2=O)cc(OC)c1O | inactive | –
2 | COc1ccc2oc(C(=O)Nc3ccccn3)c(C)c2c1 | inconclusive: 39.8 µM [quencher, side channel, single point] | –
3 | NS(=O)(=O)c1ccc(NC(=O)Nc2cccc(Cl)c2)cc1 | inconclusive: 8.91 µM [quencher, side channel, partial curve] | –
4 | COc1cc(CN2CCNC(=O)C2CC(=O)NC2CCCC2)cc(OC)c1 (configuration not stated) | inconclusive: 31.6 µM [inhibitor, single point] | –
5 | COC(=O)C(C)Oc1ccc2c(c1)O/C(=C\c1ccco1)C2=O (configuration not stated) | inconclusive: 28.2 µM [quencher, side channel, partial curve] | –
6 | O=C(Cn1c2ccccc2c(=O)c2ccccc21)N/N=C/c1cc([N+](=O)[O-])ccc1N1CCCCCC1 | inactive | –
7 | COc1ccc(-c2cc(C(=O)NC3=NCCS3)c3ccccc3n2)cc1OC | inconclusive: 28.2 µM [quencher, side channel, single point] | –
8 | O=C(Nc1cccc([N+](=O)[O-])c1)C1C2/C=C\CCCCC21 (configuration not stated) | inconclusive: 14.1 µM [quencher, side channel, partial curve] | –
9 | O=C1CCC=C1[C@@H](O)CCc1ccccc1 | – | inactive: -0.847% [at 11.7 µM]
10 | O=C(N=Nc1c(O)[nH]c2ccc(Br)cc12)c1ccccc1-n1cccc1 | inconclusive: 17.8 µM [quencher, side channel, partial curve] | –
11 | CC1CCc2sc3nc(NCc4ccco4)n4ncnc4c3c2C1 (configuration not stated) | inconclusive: 25.1 µM [fluorescent, side channel, single point] | –
12 | CCOc1ccccc1-n1c(SCC(=O)Nc2ccccc2C(=O)O)nc2ccccc2c1=O | inconclusive: 1 µM [quencher, side channel, full curve, poor fit] | –
13 | O=C(O)c1cc([N+](=O)[O-])ccc1NCc1ccccc1Cl | inconclusive: 28.2 µM [quencher, side channel, single point] | –
14 | O=C(Nc1sc2c(c1C(=O)O)CCCC2)c1ccc(Cl)cc1 | inconclusive: 14.1 µM [quencher, side channel, partial curve] | –
15 | O=C(O)c1cccc(N/N=C/C2=C(Cl)c3cc(Cl)ccc3SC2)c1 | inconclusive: 20 µM [quencher, side channel, partial curve] | –
16 | O=C(Nc1ccc(F)cc1)Nc1cc(OCC(F)(F)F)cc(OCC(F)(F)F)c1 | inconclusive: 4.47 µM [quencher, side channel, partial curve] | –
17 | COc1ccc(C(=O)/C=C/c2ccc(OC)cc2OC)c(O)c1 | inconclusive: 15.8 µM [quencher, side channel, partial curve] | –
18 | COc1ccc(CC(O)CC2c3c(cc4c(c3OC)OCO4)CCN2C)cc1 (configuration not stated) | inconclusive: 12.6 µM [inhibitor, partial curve] | –
19 | C[C@@]12C(=O)OC(=O)[C@]1(C)[C@H]1CC[C@@H]2O1 | inactive | –

Row | SMILES | Potency | FP activity change, negative = inhibition
20 | CCCCc1nc2c(c3c1C[C@H](C)OC3)CN(C(=O)C1CC1)CC2 | – | inactive: 4.46% [at 11.7 µM]
21 | O=C(/C=C/Nc1ccc(F)cc1)c1ccc(Br)cc1 | inconclusive: 39.8 µM [inhibitor, single point] | –
22 | CC(=O)c1ccc(OC(C)C)c(CN2CCCCC2)c1 | inconclusive: 3.55 µM [inhibitor, single point] | –
23 | Cc1cc(C)c2cc(CN(Cc3nnnn3C3CCCCC3)CC3CCCO3)c(=O)[nH]c2c1 (configuration not stated) | inconclusive: 15.8 µM [inhibitor, partial curve] | –
24 | Cc1ccc(-c2nc(C=Nc3cccc(C)c3)c(O)o2)cc1 | inconclusive: 10 µM [quencher, side channel, partial curve] | –
25 | CN(C)CCCN(C(=O)c1ccc(S(=O)(=O)N2CCCCCC2)cc1)c1nc2ccc(Br)cc2s1 | inconclusive: 4.47 µM [inhibitor, partial curve] | –
26 | CC(C)c1ccc(NC(=O)CSc2nc3ccsc3c(=O)n2Cc2ccc(C(=O)O)cc2)cc1 | inconclusive: 7.94 µM [quencher, side channel, full curve, poor fit] | –
27 | O=C(COc1ccccc1)N1CCN(C(=O)COc2ccccc2)CC1 | inconclusive: 31.6 µM [quencher, side channel, single point] | –
28 | CCO[C@@H]1OC(C(=O)NCc2ccccc2)=C[C@H](C2CC2)[C@H]1CCCO | inconclusive: 10 µM [fluorescent, side channel, partial curve] | –
29 | COC(=O)c1cc(C(=O)Nc2cc(C)ccn2)cc([N+](=O)[O-])c1 | inconclusive: 20 µM [quencher, side channel, single point] | –
30 | Cc1ccc(NS(=O)(=O)c2ccc3oc(=O)ccc3c2)cc1Cl | inconclusive: 31.6 µM [quencher, side channel, single point] | –
31 | COc1ccc(-c2csc(-c3[nH]cnc3N)n2)cc1 | inconclusive: 14.1 µM [quencher, side channel, partial curve] | –
32 | CN(C)c1ccc(/C=C/c2c([N+](=O)[O-])c(=O)n(C)c(=O)n2C)cc1 | inconclusive: 35.5 µM [fluorescent, side channel, single point] | –
33 | O=C1NC(c2ccc(Br)cc2)=N/C1=C/c1ccco1 | inconclusive: 35.5 µM [quencher, side channel, single point] | –
34 | Cc1cc(C)cc(-n2c(C)cc(/C=N\NC(=O)COc3cccc4cccnc34)c2C)c1 | inconclusive: 22.4 µM [fluorescent, side channel, single point] | –
35 | COC(=O)Nc1cc(C)nc2ccccc12 | inconclusive: 14.1 µM [inhibitor, partial curve] | –
36 | Cc1cc(C)nc(NC(=NCCc2c[nH]c3ccccc23)NC(=O)Nc2ccc(Cl)cc2)n1 | inconclusive: 17.8 µM [inhibitor, partial curve] | –
37 | CCN(CC)S(=O)(=O)c1ccc(NC(=O)c2ccc(Sc3nncn3C)c([N+](=O)[O-])c2)cc1 | inconclusive: 25.1 µM [quencher, side channel, single point] | –
38 | CSc1ccc(S(=O)(=O)NC2CC3CCC2C3)cc1 (configuration not stated) | inactive | –

Row | SMILES | Potency | FP activity change, negative = inhibition
39 | CCN(Cc1ccccc1)C(=O)C1CCN(Cc2ccc(OC)c(OC)c2OC)CC1 | inconclusive: 39.8 µM [inhibitor, single point] | –
40 | COc1cc(-c2nnc(SCc3cc(=O)oc4cc(O)c(O)cc34)o2)cc(OC)c1OC | inconclusive: 12.6 µM [quencher, side channel, partial curve] | –
41 | Nc1c(C(=O)Nc2cccc(Cl)c2Cl)sc2nc(-c3cccnc3)ccc12 | inactive | –
42 | O=C(CSc1nc2ccccc2c(=O)n1Cc1ccco1)Nc1cccc(O)c1 | inconclusive: 11.2 µM [quencher, partial curve] | –
43 | N#Cc1ccsc1NC(=O)c1cccc([N+](=O)[O-])c1 | inconclusive: 17.8 µM [quencher, side channel, partial curve] | –
44 | CSc1ccc(/C=N/NC(=O)CNc2cccc3ccccc23)cc1 | inconclusive: 10 µM [quencher, side channel, partial curve] | –
45 | N#Cc1c(-c2ccccc2)nc(SCc2ccc([N+](=O)[O-])cc2)[nH]c1=O | inconclusive: 25.1 µM [quencher, side channel, single point] | –
46 | Cc1cc2cc(C#N)c(NCCNC(=S)NCCCN3CCOCC3)nc2cc1C | inconclusive: 39.8 µM [inhibitor, single point] | –
47 | CSc1ccc(C(=O)C2CCCN(C(=O)c3cccc(N4CCOCC4)c3)C2)cc1 (configuration not stated) | inconclusive: 0.562 µM [fluorescent, side channel, partial curve, poor fit] | –
48 | O=[N+]([O-])c1ccc(Nc2ccc(N3CCOCC3)cc2)c([N+](=O)[O-])c1 | inconclusive: 14.1 µM [quencher, side channel, partial curve] | –
49 | Cc1ccc(/C=N/NC(=O)c2nnn(-c3nonc3N)c2CN(C)c2ccccc2)s1 | inconclusive: 12.6 µM [quencher, side channel, partial curve] | –
50 | CCN(Cc1ccccc1)S(=O)(=O)c1ccc(C(=O)Nc2nnc(-c3ccccc3OC)o2)cc1 | inconclusive: 14.1 µM [quencher, side channel, partial curve] | –
51 | CCCCCCNCC(=O)N1CCC(Cc2ccccc2)CC1 | inconclusive: 7.94 µM [inhibitor, full curve] | –
52 | OCC1(Cc2cccc(Cl)c2)CCCN(Cc2cn[nH]c2C2CCCCC2)C1 (configuration not stated) | inconclusive: 4.47 µM [fluorescent, side channel, full curve] | –
53 | Cc1ccc(NC(=O)CC2S/C(=N/N=C3\CCCc4ccccc43)NC2=O)cc1 (configuration not stated) | inconclusive: 25.1 µM [quencher, side channel, partial curve] | –
54 | O=C(c1cc2ccccc2oc1=O)N(Cc1cccs1)CC1CCCO1 (configuration not stated) | inconclusive: 22.4 µM [inhibitor, partial curve, poor fit] | –
55 | O=c1[nH]c(CSc2ncccn2)nc2c1cnn2-c1ccccc1 | inconclusive: 11.2 µM [inhibitor, partial curve] | –
56 | O=c1cc(CN2CCc3ccccc32)nc2sccn12 | inactive | –
57 | Cc1ccc(/C=C2\SC(=S)N(CCC(=O)NNC(=O)c3ccccc3O)C2=O)cc1 | inconclusive: 7.94 µM [quencher, side channel, partial curve] | –

From PubChem BioAssay AID1768 (National Center for Advancing Translational Sciences (NCATS), 2009)
